For the assay, the system named is Plasmodium falciparum. Description: Primary screen in NF54 nanoGlo assay, in single point, at 2uM, 72h; a lower Z score goes with more inhibition. In kind it is functional, Erythrocyte. The note with it: timepoint 72 hour.

“And” between values parts separate entries of the source, which are not always exact repeats. Equal entries are not always repeated. About 540 (0.36%) of roughly 150,000 compounds showed an effect of 50% or more. The list shows a part of the results.

As usually defined, the % Inhibition is the change of the read-out against control, counted positive when it falls.

`CCc1nc(CN(C)C(=O)c2cccc(-c3ccc(N(C)C)cc3)c2)no1`: the “% Inhibition” value is reported as -10% and the Z score is 1.4.
Turning to `CCc1ccc(-c2nccn2-c2ccc(Cc3nnc(C)[nH]3)cc2)nc1`, the “% Inhibition” value is reported as -15% and the Z score turned out to be 2.2.
On the same counts, the results for `N[C@H]1CCN2C(=O)c3cc(-c4ccccc4F)ccc3NC(=O)[C@H]12` are 32% and -3.67.
Take `COc1ccc(Nc2nc(C)c3nnn(-c4ccc(OC)c(Cl)c4)c3n2)cc1Cl`: the “% Inhibition” value was -11% and the Z score stood at 1.67.
On to `C[C@@H](C(=O)NC1CCCC1)N1CCn2ccnc2C1`, for which the “% Inhibition” value is listed as -6% and the Z score is reported as 0.59.
Regarding `CCOc1ccc(C=C2CCCC3C2=NN(C(=O)c2ccc(F)cc2)C3c2ccc(OCC)cc2)cc1` (stereo not given), the “% Inhibition” value is 7% and the Z score is reported as -1.3.
With `CCOC(=O)C1=C(c2ccccc2)S/C(=C2/C(=S)C(C)(C)N(C(=O)c3ccccc3)c3ccc(OCC)cc32)S1`, the “% Inhibition” value (2 µM) was -2% and -9%.
`CC(C#N)CN(C)S(=O)(=O)N1CCCC(c2nccn2C)C1` (stereo not given): the “% Inhibition” value was -10% and the Z score was 1.5.
In the case of `CCCOc1cccc2c(NC[C@@]3(CCO)CCOC3)ccnc12`, the “% Inhibition” value is given as -28% and the Z score was found to be 3.3.
Consider `COCC(=O)N[C@@H](C)C(=O)NC1CCCCC1`, for which the “% Inhibition” value is 0% and the Z score is -0.07.
Regarding `C1CC2CN(c3nc(C4CC4)ns3)CC2C1` (stereo not given), the “% Inhibition” value was -17% and the Z score worked out at 2.45.
For `CCCCc1cc(C[C@H]2CNCC[C@H]2CC(=O)N2CCN(c3ccccc3)CC2)no1`, the “% Inhibition” value is recorded as -12% and the Z score is given as 2.23.
Regarding `Cc1cc(C)c(C#N)c(-c2ccc(C(=O)N3CC[C@@H](O)C3)cc2)n1`, the “% Inhibition” value is -13% and the Z score is listed as 1.6.
The like results for `CC(=O)NC1CCC(NC[C@H](C)Oc2cccc(F)c2)CC1` (stereo not given in full) were, in that order, 2% and -0.26.
For the molecule `N#Cc1cccnc1NCCOC1CCCCCC1`, the “% Inhibition” value was -4% and the Z score was found to be 0.3.
With `O=C([C@H]1CCN(C2CCCCC2)C1)N1CCc2ccc(Cl)cc2C1`, the “% Inhibition” value is on record as -7% and the Z score is given as 0.75.
On the same counts, the results for `CC(C)(C)OC(=O)N1CCn2c(nnc2C2CC2)CC1(C)C` are 0% and -0.01.
In the case of `Cc1ccccc1N1C2=CCCCCN2C[C@]1(O)c1ccc(Br)cc1`, the “% Inhibition” value was found to be 35% and the Z score is reported as -1.39.
On the same counts, the results for `COCC(=O)N1CCCC[C@H]1c1nnc2n1CCN(Cc1c(C)noc1C)CC2` are -5% and 0.82.
With `CN(Cc1cccc(-c2nnn[nH]2)c1)C(=O)Cn1cc2ccccc2n1`, the “% Inhibition” value stood at 6% and the Z score is on record as -0.56.
Regarding `Cc1nc(CN(C)C(=O)CCc2c(C)[nH]c(=O)c(C#N)c2C)cs1`, the “% Inhibition” value is listed as -13% and the Z score was 2.02.
The like results for `COc1cccc(O)c1S(=O)(=O)N1CCN(CC2CC2)CC1` were, in that order, -7% and 1.32.
For the molecule `Cc1cc(C(=O)N2CCCC2)c2c(=O)n(CC(=O)NC3CCCC3)c(=O)n(-c3ccccc3)c2n1`, the “% Inhibition” value was 1% and the Z score is given as -0.14.
